84 variants from the RNAGym collection of RNA variant scans (doi:10.1093/nar/gkz1192) can be followed below.

B1: CPEB3 Ribozyme (parent)
chain: UAACAGGGGGCCACAGCAGAAGCGUUCACGUCGCAGCCCCUGUCAGAUUCUGGUGAAUCUGCGAAUUCUGCUGUAUAUCUC

Read counts are not given, so values of variants with three or more changes are uncertain.

The series covers variants of B1. The experiment in a line: self-cleavage, relative activity (ratio to wild type); higher = more cleavage; in vitro, sequencing. In outline:
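Barcoded CPEB3 ribozyme mutants, produced by rounds of error-prone PCR, self-cleaved while being transcribed with T7 RNA polymerase for 5 hours at 37°C and during a subsequent 15 min DNase I step before EDTA was added. Sequencing of template-switched cDNA on Illumina gave cleaved and total reads, and DNA sequencing assigned barcodes to variants. Each variant's relative activity is its cleaved/total read fraction divided by the unmutated ribozyme's fraction, averaged across three batches. A variant needed a minimum of 5 reads.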
As for A5U A15G C27U A64U, the self-cleavage stood at 0.08. For A5U A13U G19A G52U A64U, the self-cleavage is 0.1. For the variant A5U A20G C59U, the self-cleavage came to 0.44.

For the variant A5U A13U A18G A20G A28U, the self-cleavage was found to be 0.09. Under A5U A13U A57G stands 0.75; under A5U A15U U69A U74G, 0.34; under A5U A15C U58C A65U, 0.14. Take A5U A13U A64C U67C: the self-cleavage was determined as 0.22. For A5U A13G U51A the value was 0.85; for A5U A15C U26C U49C, 0.1. Under A5U A13U U25C A64G U72A stands 0.18. For A5U A20G C29U A35G C59A the value was 0.24; for A5U A15U U72A, 1.16. A5U A18U U26C A47G U58C U74C: the self-cleavage came out at 0.23.

Turning to A5U A13U A28C, the self-cleavage amounted to 1.1.

Turning to A5U A15U A28U U49C G53U A57U A75U, the self-cleavage is 0.11.

A5U A18G C40U U51A: the self-cleavage is 0.41. Under A5U A15G A20G U26A stands 0.34. Under A5U A18G G19A U80C stands 0.51; under A5U A18U A20G U51G A64G A65U U80A, 0.11. For A5U A20G U31C U67C U69C U80C the value was 0.16.

Regarding A5U A18G U49A A64G U69C, the self-cleavage worked out at 0.26. As for A5U A15U A20U U43A A57G, the self-cleavage was 0.11. For A5U A18G G42A, the self-cleavage worked out at 0.47. On to A5U A18U U48C C81G, for which the self-cleavage amounted to 0.16. Take A5U A18U A65G: the self-cleavage was 0.29. In the case of A5U A13U A18U A20U A35G U78C, the self-cleavage stood at 0.18. As for A5U A20G A28U C29U, the self-cleavage was found to be 0.23. For A5U A15G C37U U60G U72C U78C the value was 0.38; for A5U A18G A47G, 0.63; for A5U A18G A20G U26G A28U, 0.11. Under A5U A18U U41C stands 0.61.

As to A5U A13G G33A U76C A77G, the self-cleavage was 0.56. As to A5U A20G U41C U74A, the self-cleavage worked out at 1.08. On to A5U A15U U43A U60A U69A, for which the self-cleavage was 0.34.

Consider A5U A18G A21G A28G A56G A57G, for which the self-cleavage was determined as 0.33. For the variant A5U A15G U43A A47G U74C, the self-cleavage came to 1.12.

Take A5U A15U U41C U54A U72G: the self-cleavage amounted to 1.07. For A5U A13U A15G A21G A35U A56U the value was 0.12. For A5U A15G C17U U67A the value was 0.12; for A5U A18G A56G, 0.66. For A5U A15G U48C C62U, the self-cleavage was 0.21.

As for A5U A18G U43C U48C, the self-cleavage was 0.47. Under A5U A15G U26G U78C stands 0.15; under A5U A15U A21U U66C, 0.13; under A5U A18U A20G U43A A64U U72C, 0.35.

A5U A13U U51A A64G: the self-cleavage was 1.25.

On to A5U A15G C29U U51C U58C, for which the self-cleavage came out at 0.19. On to A5U A18G A21G A56G C62U, for which the self-cleavage was determined as 0.15. Under A5U A13U A21G C27A U74G U78A stands 0.18; under A5U A15G A20G U41A A47G A77G, 0.07. Under A5U A18U A20U C23G C27A C39G stands 0.05; under A5U A13U U25C U26C A64G, 0.07; under A5U A18U C62U, 0.12. For A5U A18U A45G U58C the value was 0.18.

Take A5U A13U U26C: the self-cleavage turned out to be 0.98.

As for A5U A13U A28C G55A C81U, the self-cleavage came out at 0.48. Turning to A5U A20G A35G G73A U78C U80C, the self-cleavage was 1.3. Under A5U A20G A47G U60C U72C stands 0.27; under A5U A18G U26A U51A U60C U72C U78A, 0.29. Under A5U A15U A20U C40A A56U A64G U66C stands 0.2; under A5U A18U U51C U60A U66C U76A A77U, 0.38. Under A5U A15G U43C G52A U69C U78C stands 0.19; under A5U A15G U26A U43C A64G U76C C79G, 0.15; under A5U A15U A35U U41C U43C, 0.13. Turning to A5U A18G A28C C37U U43A A64G, the self-cleavage was 0.17.

In the case of A5U A13G U31A U72C, the self-cleavage came out at 0.82. Regarding A5U A18U U31A A35U U41A A57G, the self-cleavage amounted to 0.05.

For the variant A5U A18G U51C U60C, the self-cleavage was found to be 0.1. In the case of A5U A18U U31A U41A A45G C79A, the self-cleavage came out at 0.49.

On to A5U A15U U48C, for which the self-cleavage was determined as 0.47.

For the variant A5U A15G C23G A75G, the self-cleavage came out at 0. A5U A13U U48C A64G U80C: the self-cleavage stood at 0.94. As for A5U A13U A45G U67A, the self-cleavage came out at 0.57. For A5U A15G U25C U41A A47G U48C U69C the value was 0.

With A5U A18U U41C A56G, the self-cleavage was 0.2.

For the variant A5U A13U U43A A47U U51C U60C A64G, the self-cleavage was 0.05. For A5U A13U A20G A47U the value was 0.57. Under A5U A18U A20C A45G G46C stands 0.17. Consider A5U A15U C29A C59G U72C, for which the self-cleavage came to 0.14. As for A5U A15G U26A C39U U72C, the self-cleavage amounted to 0.93. With A5U A20G U25C A47G, the self-cleavage came out at 0.44. As for A5U A20G U31G U49C, the self-cleavage is 0.19.

Turning to A5U A15U U58C, the self-cleavage worked out at 0.18.
